Measured values as given in PubChem BioAssay AID1963576 (National Center for Advancing Translational Sciences (NCATS), 2024).
Among all 46,000 compounds or so, about 60 (0.1%) were called active. Not shown: some 3% with an inconclusive outcome. Calls come from the whole dose curve; as a rule, active = well fitted inhibition curve with a large enough effect; inconclusive = small, poorly fitted or top-dose-only effect; inactive = no such curve, though single readings can be large or run the other way. The list shows a part of the results.

test: Primary qHTS assay for Inhibitors of ovarian cancer metastasis using an organotypic tumor microenvironment (TME) model.; note: nearly all actives have a fitted effect of over 65% in size;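 for activity change, negative = inhibition: plate controls were DMSO wells for no effect and tomatine positive control wells for full effect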; conditions: SKOV3ip1-GFP adhesion/invasion on 3D omental model, fluorescence; series mostly up to 45.8 µM; activity change, negative = inhibition: at the top concentration
Method in brief: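 A 3D layer of primary human omental fibroblasts, mesothelial cells, fibronectin and collagen I, grown 48 hr, received SKOV3ip1-GFP cells in serum-free medium plus compounds at 0.36-46 umol/L. After 2 hr RT and 16 hr 37 C, fixed adherent GFP cells were counted; normalized to DMSO and tomatine.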

Row | SMILES | activity change, negative = inhibition | outcome
1 | O=c1ccn([C@@H]2O[C@H](CO)[C@H](O)[C@@H]2F)c(=O)[nH]1 | inactive: 2.31% | 
2 | Cc1ccc(-n2nc3c(=O)n(CC(=O)Nc4ccccc4F)nc(C)c3c2C)c(C)c1 |  | inactive
3 | COC(=O)c1ccc(Cl)cc1NC(=O)N1CC(C)Oc2ccccc21 (stereo not drawn) |  | inactive
4 | CCN(CC)c1ccc(NC(=O)C(Cc2ccccc2)NS(=O)(=O)c2ccc(Br)s2)c(C)c1 (stereo not drawn) |  | inactive
5 | CC(=O)Nc1cccc(NC(=O)Cn2cnc3c2c(=O)n(C)c(=O)n3C)c1 | inactive: 3.13% | 
6 | Cc1nc(N2CCCC2)c2c(C(=O)Nc3cccc(C)c3C)c(C)oc2n1 |  | inactive
7 | O=C(Nc1ccc(C(=O)OCc2cc(=O)n3nc(C4CC4)sc3n2)cc1)c1ccc(F)cc1 | inactive: 6.02% | 
8 | Cc1cccc(N2CCN(S(=O)(=O)c3ccc4c(c3)CCCN4C(=O)C3CCC3)CC2)c1C | inactive: -4.52% | 
9 | COc1ccccc1N1CCN(C(=O)Cn2ncc3c(=O)oc4ccccc4c32)CC1 |  | inactive
10 | COc1cc(OC)c(NC(=O)COCc2cc(-c3cccs3)on2)cc1Cl |  | inactive
11 | COc1ccc(S(=O)(=O)N(CC(=O)NCc2ccccc2OC)c2ccc(C)cc2)cc1 | inactive: 16.1% | 
12 | CCOc1ccccc1N(C)C(=O)Cn1cnc2sc(C)c(S(=O)(=O)N3CCC(C)CC3)c2c1=O | inactive: 12.7% | 
13 | COc1ccc(CCNCc2c(C(=O)O)c(C)n(Cc3ccccc3C)c2C)c(OC)c1 | inactive: 7.34% | 
14 | Cc1nn(CCCC(=O)Nc2ccccc2C(F)(F)F)c(=O)c2c1sc1ccccc12 | inactive: 11.6% | 
15 | O=C(Cn1c(=O)n(Cc2ccco2)c(=O)c2oc3ccccc3c21)Nc1ccc(F)cc1F | inactive: 1.51% | 
16 | COc1ccccc1CCNC(=O)CCc1c(C)c2cc3c(C)coc3c(C)c2oc1=O |  | inactive
17 | CN(C)CCN(Cc1ccco1)S(=O)(=O)c1cc2c(cc1Cl)NC(=O)CO2 | inactive: -6.45% | 
18 | O=C(NCCO)C(=O)Nc1c2c(nn1-c1ccc(F)cc1)CSC2 | inactive: -1.46% | 
19 | Cn1c(=O)n(C)c2cc(NS(=O)(=O)c3ccccc3)c(NCc3ccccc3)cc21 | inactive: 1.15% | 
20 | CCC(Sc1nnc(C)n2c1cc1occc12)C(=O)Nc1ccccc1F (stereo not drawn) | inactive: -8.31% | 
21 | COc1cccc(NC(=O)Nc2cc(-c3cn4cccnc4n3)ccc2C)c1 | inactive: 0.437% | 
22 | COCc1cc(C)n(CC(=O)Nc2ccc(NC(C)=O)cc2)c(=O)c1C#N | inactive: -11.5% | 
23 | CCN(CC)C(=O)Cn1cc(SCC(=O)Nc2cccc(C)c2)c2ccccc21 | inactive: -8.23% | 
24 | CC(C)OCCCN(Cc1ccco1)C(=O)c1cc2c(s1)-c1ccccc1OC2 | inactive: 1.31% | 

Row | SMILES | activity change, negative = inhibition | outcome
25 | COc1ccccc1CNC(=O)CN1C(=O)CSc2ccc(S(=O)(=O)N3CCCC3)cc21 | inactive: -20.2% | 
26 | COC(=O)c1cc2oc3ccccc3c2n1CC(=O)Nc1ccc(OC)c(OC)c1OC | inactive: -9.07% | 
27 | Cc1ccc(-c2noc(CNC(=O)c3ccc(C(C)(C)C)cc3)n2)cc1 | inactive: -10.6% | 
28 | CC(C)Oc1ccc(CNC(=O)C2CCN(C(=O)c3sccc3-n3cccc3)CC2)cc1 | inactive: -6.59% | 
29 | Cc1cccc(C(=O)N2CCc3cc(CNC(=O)CCc4ccccc4)ccc32)c1 |  | inactive
30 | Cc1ccc(Cl)cc1NC(=O)N1CCN(C)c2ncccc21 | inactive: 8.62% | 
31 | CC1=C(C#N)C(NC(=O)c2cccc(Cl)c2)(C(F)(F)F)C(=O)N1 (stereo not drawn) | inactive: -2.33% | 
32 | COc1ccc(N2CCN(c3cc(C)nc4nc(-c5ccc(C)cc5)nn34)CC2)cc1 |  | inactive
33 | COc1ccccc1-c1noc(-c2ccc(N3CCN(c4ccccc4)CC3)c([N+](=O)[O-])c2)n1 | inactive: 9.84% | 
34 | COc1ccc(Nc2c(-c3cc(Br)ccc3O)nc3ncccn23)cc1OC | inactive: -15.4% | 
35 | Cc1cccc(C)c1-n1ncc(C(=O)Nc2ccc3c(c2)OCCO3)c1C1CCN(C(=O)OC(C)(C)C)CC1 | inactive: 6.58% | 
36 | Cc1ccc(S(=O)(=O)c2cn(C)c3cc(N4CCN(C)CC4)c(F)cc3c2=O)cc1 | inactive: 15.6% | 
37 | CCOCCOC(=O)c1ccc(NC(=O)/C=C/c2ccc(OC)c(OC)c2)cc1 |  | inactive
38 | CCc1cc2c(cc3c(=O)n(CC(=O)N4CCN(c5cc(Cl)ccc5C)CC4)ncn32)s1 | inactive: 34.3% | 
39 | O=C(CSc1ncc2c(n1)-c1ccccc1N(Cc1ccc(F)cc1)S2(=O)=O)c1ccc(Cl)cc1 | inactive: 11.8% | 
40 | COc1ccccc1N1CCN(S(=O)(=O)c2c(C)sc3ncn(CC(=O)N(C)c4ccc(C(C)C)cc4)c(=O)c23)CC1 | inactive: 9.09% | 
41 | CNS(=O)(=O)c1ccc(OC)c(-c2nnc3c4ccccc4c(C)nn23)c1 | inactive: -2.82% | 
42 | Cc1ccc(NCc2cccn2-c2nnc(N3CCC(C(=O)NCc4ccc(OC(C)C)cc4)CC3)s2)cc1 | inactive: -10% | 
43 | CCS(=O)(=O)N1CCc2cc(C(=O)NCCc3ccc(OC)c(OC)c3)ccc21 | inactive: -3.91% | 
44 | COc1cccc(C(=O)Nc2ccc(S(=O)(=O)N(Cc3ccccc3)c3ccccc3)cc2)c1 | inactive: -8.37% | 
45 | Cc1ccc(C2CCN(C(=O)Nc3ccc(C)c(C)c3)C2)cc1 (stereo not drawn) | inactive: 1.67% | 
46 | COc1cc(NC(=O)CC2C(=O)N(c3cccc(C)c3)C(=O)N2Cc2cccs2)cc(OC)c1 (stereo not drawn) |  | inactive
47 | CC(C)Oc1ccc(CNC(=O)Cn2c(-c3cccs3)cc3ccccc32)cc1 | inactive: 6.71% | 
48 | Cc1ccc(C(=O)Nc2ccc3[nH]c(=O)c(=O)[nH]c3c2)cc1 | inactive: 13.3% | 
